The source of these data is the supplement of paper PMC12423691.

The other results are listed elsewhere or left out. Binding of human transcription factors and regulators to the viral nucleoprotein by AlphaScreen, crude cell-free proteins, amounts not normalised, one pass. Fold of the Venus control; higher = more signal. No active / inactive call. Single-pass screen; sequences are the whole Swiss-Prot entries looked up by name.

B1: TFCP2, Q12800 (protein)
chain: MAWALKLPLADEVIESGLVQDFDASLSGIGQELGAGAYSMSDVLALPIFKQEESSLPPDNENKILPFQYVLCAATSPAVKLHDETLTYLNQGQSYEIRMLDNRKLGELPEINGKLVKSIFRVVFHDRRLQYTEHQQLEGWRWNRPGDRILDIDIPMSVGIIDPRANPTQLNTVEFLWDPAKRTSVFIQVHCISTEFTMRKHGGEKGVPFRVQIDTFKENENGEYTEHLHSASCQIKVFKPKGADRKQKTDREKMEKRTPHEKEKYQPSYETTILTECSPWPEITYVNNSPSPGFNSSHSSFSLGEGNGSPNHQPEPPPPVTDNLLPTTTPQEAQQWLHRNRFSTFTRLFTNFSGADLLKLTRDDVIQICGPADGIRLFNALKGRMVRPRLTIYVCQESLQLREQQQQQQQQQQKHEDGDSNGTFFVYHAIYLEELTAVELTEKIAQLFSISPCQISQIYKQGPTGIHVLISDEMIQNFQEEACFILDTMKAETNDSYHIILK
B2: ZIC3, O60481 (protein)
chain: MTMLLDGGPQFPGLGVGSFGAPRHHEMPNREPAGMGLNPFGDSTHAAAAAAAAAAFKLSPAAAHDLSSGQSSAFTPQGSGYANALGHHHHHHHHHHHTSQVPSYGGAASAAFNSTREFLFRQRSSGLSEAASGGGQHGLFAGSASSLHAPAGIPEPPSYLLFPGLHEQGAGHPSPTGHVDNNQVHLGLRGELFGRADPYRPVASPRTDPYAAGAQFPNYSPMNMNMGVNVAAHHGPGAFFRYMRQPIKQELSCKWIDEAQLSRPKKSCDRTFSTMHELVTHVTMEHVGGPEQNNHVCYWEECPREGKSFKAKYKLVNHIRVHTGEKPFPCPFPGCGKIFARSENLKIHKRTHTGEKPFKCEFEGCDRRFANSSDRKKHMHVHTSDKPYICKVCDKSYTHPSSLRKHMKVHESQGSDSSPAASSGYESSTPPAIASANSKDTTKTPSAVQTSTSHNPGLPPNFNEWYV
B3: CEBPE, Q15744 (protein)
chain: MSHGTYYECEPRGGQQPLEFSGGRAGPGELGDMCEHEASIDLSAYIESGEEQLLSDLFAVKPAPEARGLKGPGTPAFPHYLPPDPRPFAYPPHTFGPDRKALGPGIYSSPGSYDPRAVAVKEEPRGPEGSRAASRGSYNPLQYQVAHCGQTAMHLPPTLAAPGQPLRVLKAPLATAAPPCSPLLKAPSPAGPLHKGKKAVNKDSLEYRLRRERNNIAVRKSRDKAKRRILETQQKVLEYMAENERLRSRVEQLTQELDTLRNLFRQIPEAANLIKGVGGCS
B4: ABRA, Q8N0Z2 (protein)
chain: MAPGEKESGEGPAKSALRKIRTATLVISLARGWQQWANENSIRQAQEPTGWLPGGTQDSPQAPKPITPPTSHQKAQSAPKSPPRLPEGHGDGQSSEKAPEVSHIKKKEVSKTVVSKTYERGGDVSHLSHRYERDAGVLEPGQPENDIDRILHSHGSPTRRRKCANLVSELTKGWRVMEQEEPTWRSDSVDTEDSGYGGEAEERPEQDGVQVAVVRIKRPLPSQVNRFTEKLNCKAQQKYSPVGNLKGRWQQWADEHIQSQKLNPFSEEFDYELAMSTRLHKGDEGYGRPKEGTKTAERAKRAEEHIYREMMDMCFIICTMARHRRDGKIQVTFGDLFDRYVRISDKVVGILMRARKHGLVDFEGEMLWQGRDDHVVITLLK
B5: BRMS1, Q9HCU9 (protein)
chain: MPVQPPSKDTEEMEAEGDSAAEMNGEEEESEEERSGSQTESEEESSEMDDEDYERRRSECVSEMLDLEKQFSELKEKLFRERLSQLRLRLEEVGAERAPEYTEPLGGLQRSLKIRIQVAGIYKGFCLDVIRNKYECELQGAKQHLESEKLLLYDTLQGELQERIQRLEEDRQSLDLSSEWWDDKLHARGSSRSWDSLPPSKRKKAPLVSGPYIVYMLQEIDILEDWTAIKKARAAVSPQKRKSDGP
B6: ZNF446, Q9NWS9 (protein)
chain: MPSPLGPPCLPVMDPETTLEEPETARLRFRGFCYQEVAGPREALARLRELCCQWLQPEAHSKEQMLEMLVLEQFLGTLPPEIQAWVRGQRPGSPEEAAALVEGLQHDPGQLLGWITAHVLKQEVLPAAQKTEEPLGSPHPSGTVESPGEGPQDTRIEGSVQLSCSVKEEPNVDGQEVAPSSPPLAAQSPEGNHGHQEPASTSFHPPRIQEEWGLLDRSQKELYWDAMLEKYGTVVSLGLPPHQPEAQAQSELGMLLTGTGVCRSLRSGNESEGPPGCPEAQPPQGPGPAAWEGLSGAATPAPTVRPGTPPVPTQPTPAETRLEPAATPRKPYTCEQCGRGFDWKSVFVIHHRTHTSGPGVQSPGLATGESTEKPPQGEVAFPHHPRRSLTGPRSYPCEECGCSFSWKSQLVIHRKSHTGQRRHFCSDCGRAFDWKSQLVIHRKGHRPEVP
B7: AHR, P35869 (protein)
chain: MNSSSANITYASRKRRKPVQKTVKPIPAEGIKSNPSKRHRDRLNTELDRLASLLPFPQDVINKLDKLSVLRLSVSYLRAKSFFDVALKSSPTERNGGQDNCRAANFREGLNLQEGEFLLQALNGFVLVVTTDALVFYASSTIQDYLGFQQSDVIHQSVYELIHTEDRAEFQRQLHWALNPSQCTESGQGIEEATGLPQTVVCYNPDQIPPENSPLMERCFICRLRCLLDNSSGFLAMNFQGKLKYLHGQKKKGKDGSILPPQLALFAIATPLQPPSILEIRTKNFIFRTKHKLDFTPIGCDAKGRIVLGYTEAELCTRGSGYQFIHAADMLYCAESHIRMIKTGESGMIVFRLLTKNNRWTWVQSNARLLYKNGRPDYIIVTQRPLTDEEGTEHLRKRNTKLPFMFTTGEAVLYEATNPFPAIMDPLPLRTKNGTSGKDSATTSTLSKDSLNPSSLLAAMMQQDESIYLYPASSTSSTAPFENNFFNESMNECRNWQDNTAPMGNDTILKHEQIDQPQDVNSFAGGHPGLFQDSKNSDLYSIMKNLGIDFEDIRHMQNEKFFRNDFSGEVDFRDIDLTDEILTYVQDSLSKSPFIPSDYQQQQSLALNSSCMVQEHLHLEQQQQHHQKQVVVEPQQQLCQKMKHMQVNGMFENWNSNQFVPFNCPQQDPQQYNVFTDLHGISQEFPYKSEMDSMPYTQNFISCNQPVLPQHSKCTELDYPMGSFEPSPYPTTSSLEDFVTCLQLPENQKHGLNPQSAIITPQTCYAGAVSMYQCQPEPQHTHVGQMQYNPVLPGQQAFLNKFQNGVLNETYPAELNNINNTQTTTHLQPLHHPSEARPFPDLTSSGFL
B8: AGT, P01019 (protein)
chain: MAPAGVSLRATILCLLAWAGLAAGDRVYIHPFHLVIHNESTCEQLAKANAGKPKDPTFIPAPIQAKTSPVDEKALQDQLVLVAAKLDTEDKLRAAMVGMLANFLGFRIYGMHSELWGVVHGATVLSPTAVFGTLASLYLGALDHTADRLQAILGVPWKDKNCTSRLDAHKVLSALQAVQGLLVAQGRADSQAQLLLSTVVGVFTAPGLHLKQPFVQGLALYTPVVLPRSLDFTELDVAAEKIDRFMQAVTGWKTGCSLMGASVDSTLAFNTYVHFQGKMKGFSLLAEPQEFWVDNSTSVSVPMLSGMGTFQHWSDIQDNFSVTQVPFTESACLLLIQPHYASDLDKVEGLTFQQNSLNWMKKLSPRTIHLTMPQLVLQGSYDLQDLLAQAELPAILHTELNLQKLSNDRIRVGEVLNSIFFELEADEREPTESTQQLNKPEVLEVTLNRPFLFAVYDQSATALHFLGRVANPLSTA
B9: LRP5, O75197 (protein)
chain: MEAAPPGPPWPLLLLLLLLLALCGCPAPAAASPLLLFANRRDVRLVDAGGVKLESTIVVSGLEDAAAVDFQFSKGAVYWTDVSEEAIKQTYLNQTGAAVQNVVISGLVSPDGLACDWVGKKLYWTDSETNRIEVANLNGTSRKVLFWQDLDQPRAIALDPAHGYMYWTDWGETPRIERAGMDGSTRKIIVDSDIYWPNGLTIDLEEQKLYWADAKLSFIHRANLDGSFRQKVVEGSLTHPFALTLSGDTLYWTDWQTRSIHACNKRTGGKRKEILSALYSPMDIQVLSQERQPFFHTRCEEDNGGCSHLCLLSPSEPFYTCACPTGVQLQDNGRTCKAGAEEVLLLARRTDLRRISLDTPDFTDIVLQVDDIRHAIAIDYDPLEGYVYWTDDEVRAIRRAYLDGSGAQTLVNTEINDPDGIAVDWVARNLYWTDTGTDRIEVTRLNGTSRKILVSEDLDEPRAIALHPVMGLMYWTDWGENPKIECANLDGQERRVLVNASLGWPNGLALDLQEGKLYWGDAKTDKIEVINVDGTKRRTLLEDKLPHIFGFTLLGDFIYWTDWQRRSIERVHKVKASRDVIIDQLPDLMGLKAVNVAKVVGTNPCADRNGGCSHLCFFTPHATRCGCPIGLELLSDMKTCIVPEAFLVFTSRAAIHRISLETNNNDVAIPLTGVKEASALDFDVSNNHIYWTDVSLKTISRAFMNGSSVEHVVEFGLDYPEGMAVDWMGKNLYWADTGTNRIEVARLDGQFRQVLVWRDLDNPRSLALDPTKGYIYWTEWGGKPRIVRAFMDGTNCMTLVDKVGRANDLTIDYADQRLYWTDLDTNMIESSNMLGQERVVIADDLPHPFGLTQYSDYIYWTDWNLHSIERADKTSGRNRTLIQGHLDFVMDILVFHSSRQDGLNDCMHNNGQCGQLCLAIPGGHRCGCASHYTLDPSSRNCSPPTTFLLFSQKSAISRMIPDDQHSPDLILPLHGLRNVKAIDYDPLDKFIYWVDGRQNIKRAKDDGTQPFVLTSLSQGQNPDRQPHDLSIDIYSRTLFWTCEATNTINVHRLSGEAMGVVLRGDRDKPRAIVVNAERGYLYFTNMQDRAAKIERAALDGTEREVLFTTGLIRPVALVVDNTLGKLFWVDADLKRIESCDLSGANRLTLEDANIVQPLGLTILGKHLYWIDRQQQMIERVEKTTGDKRTRIQGRVAHLTGIHAVEEVSLEEFSAHPCARDNGGCSHICIAKGDGTPRCSCPVHLVLLQNLLTCGEPPTCSPDQFACATGEIDCIPGAWRCDGFPECDDQSDEEGCPVCSAAQFPCARGQCVDLRLRCDGEADCQDRSDEADCDAICLPNQFRCASGQCVLIKQQCDSFPDCIDGSDELMCEITKPPSDDSPAHSSAIGPVIGIILSLFVMGGVYFVCQRVVCQRYAGANGPFPHEYVSGTPHVPLNFIAPGGSQHGPFTGIACGKSMMSSVSLMGGRGGVPLYDRNHVTGASSSSSSSTKATLYPPILNPPPSPATDPSLYNMDMFYSSNIPATARPYRPYIIRGMAPPTTPCSTDVCDSDYSASRWKASKYYLDLNSDSDPYPPPPTPHSQYLSAEDSCPPSPATERSYFHLFPPPPSPCTDSS

The test has as its target nucleoprotein N of Crimean-Congo hemorrhagic fever virus. As to the kind of experiment: AlphaScreen luminescence signal relative to Venus negative control (fold); higher = stronger binding to CCHFV N. As for the experimental part: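 AlphaScreen binding of cell-free made, FLAG-GST-tagged human transcription factors and regulators (crude translation products) to biotinylated N protein; signal as fold of the FLAG-GST-Venus control. One pass.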
(Bead proximity is the source of the signal in Alpha formats.)
As to B1, the AlphaScreen luminescence signal is 2.33. Under B2 stands 2.6; under B3, 3.67; under B4, 2.6. Molecule B5 gave an AlphaScreen luminescence signal of 1.81. In the case of B6 it was 1.4; in that of B7, 4. B8: the AlphaScreen luminescence signal came to 4.23. B9 gave an AlphaScreen luminescence signal of 3.07.
